# Test results published in PubChem BioAssay AID2546 (National Center for Advancing Translational Sciences (NCATS), 2010).
# Hit rate of the full screen: of about 310,000 compounds, about 11,000 (3.5%) were called active. Inconclusive results, whose numbers are uncertain, are shown with a selection of clear calls. The call rests on the fitted dose curve; in most records, active means well fitted inhibition curve with a large enough effect; inconclusive means small, poorly fitted or top-dose-only effect, or effect the other way; inactive means flat fitted curve, though single readings scatter. Potencies of inconclusive entries are left out as doubtful fits.
# Assay: VP16 counterscreen qHTS for inhibitors of ROR gamma transcriptional activity;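 further: Gal4-VP16 expression switched on by copper sulfate through the metallothionein promoter; nearly all actives have a fitted effect of over 50% in size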
# Conditions: Drosophila S2 Gal4-VP16 UAS-luciferase, luminescence, 20 h; activity, negative = inhibition: at 53.6 µM (top of the series)
# On the % scale 0 is the no-effect control and ±100 the full control effect; potency means the concentration at half of the fitted maximal effect; tags describe the fitted curve by direction and shape.
Compound,Potency,"activity, negative = inhibition"
CC1(O)CC(c2ccc(Cl)cc2)=NN1C(=O)c1ccc(Cl)cc1 (centres undefined),"inconclusive [inhibitor, single point]",
CC(C)(C)Nc1c(-c2ccc(O)cc2)nc2ccc(Cl)cn12,"inconclusive [inhibitor, single point]",
O=C(Nc1ccccc1C(=O)Nc1nnc(C(F)(F)F)s1)c1ccccc1,active: 5.01 µM,
c1ccc(-n2nnnc2Oc2cccc3cccnc23)cc1,active: 4.47 µM,
CC(=O)Nc1cccc(NC(=O)c2cc(-c3cccnc3)nc3ccc(Br)cc23)c1,"inconclusive [inhibitor, single point]",
CCCc1cc(NCc2ccccn2)n2c(nc3ccccc32)c1C#N,,inactive: -3.33%
COC(=O)C(C)Sc1ncnc2c1nnn2-c1ccc(F)cc1 (centres undefined),,inactive: -2.02%
O=C(Nc1ccccn1)c1ccc2ccccc2n1,"inconclusive [inhibitor, full curve]",
COc1ccc(C)cc1Cn1c(S(C)(=O)=O)nc2ccccc21,,inactive: -5.71%
CCn1c(SCC(=O)NCc2ccco2)nnc1-c1cccs1,"inconclusive [inhibitor, full curve]",
O=C(Nc1nnc(C2CC2)s1)c1ccncc1,"inconclusive [inhibitor, partial curve]",
COc1ccc(C(CCNCc2ccc(OC(C)C)cc2)C(C)C)cc1 (centres undefined),"inconclusive [inhibitor, single point]",
CN(C)c1ccc(/C=N/NC(=O)c2ccc(CN3C(=O)c4cccc5cccc3c45)cc2)cc1,"inconclusive [inhibitor, partial curve, poor fit]",
CCOC(=O)c1cnn(-c2cc(C)c3ccccc3n2)c1N,"inconclusive [inhibitor, full curve]",
Cc1ccccc1C1CCCN(Cc2nc(CC3CC3)no2)C1 (centres undefined),"inconclusive [activator, full curve, poor fit]",
CCCCn1c(C23CC4CC(CC(C4)C2)C3)n[nH]c1=S,active: 3.16 µM,
O=C(Nc1ccc2ccccc2c1)c1onc2c1CCCC2,"inconclusive [inhibitor, single point]",
CCOC(=O)C1=C(CSc2nc(C)ccc2C#N)OC(N)=C(C#N)C1c1cccc(OC)c1OC (centres undefined),"inconclusive [inhibitor, single point]",
Cc1cccnc1CN1CCN(C(=O)c2cc(COc3ccc4ncccc4c3)on2)CC1,"inconclusive [inhibitor, single point]",
COCCCNC(=S)N1CCN(C(c2ccccc2)c2ccccc2)CC1,"inconclusive [inhibitor, single point]",
Cc1ccc(N=Cc2c(O)n(-c3nccs3)c(=O)c3ccccc23)cc1,,inactive: -11.4%
Cc1[nH]c2ccc(-c3n[nH]c(=S)n3C)cc2c1C,"inconclusive [inhibitor, single point]",
CC(C)(C)c1ccc(-c2n[nH]c(=S)n2Cc2ccccc2)cc1,active: 7.08 µM,
Fc1ccc(N=Cc2ccc[nH]2)cc1,,inactive: -2.73%
COc1ccc(-c2cc(-c3ccccc3)nc(SCC(=O)Nc3ncc(C)s3)c2C#N)cc1,"inconclusive [activator, single point]",

Compound,Potency,"activity, negative = inhibition"
CC(=O)N(Cc1nc2sc(C)c(C)c2c(=O)[nH]1)C1CCCC1,"inconclusive [inhibitor, partial curve]",
CC1=Nc2ccccc2N=C(NC(=O)c2ccccc2)C1c1ccccc1 (centres undefined),"inconclusive [inhibitor, single point]",
CCOC(=O)c1cnc2sc3c(n2c1=O)CCCC3,"inconclusive [inhibitor, single point]",
Cc1ccc(Cl)cc1N1CCN(C(=O)CSc2nnc3n2C(C)(C)Cc2ccccc2-3)CC1,"inconclusive [inhibitor, single point]",
Cc1onc(-c2ccccc2)c1C(=O)N/N=C/c1cc2c(cc1Br)OCO2,,inactive: -9.92%
CC(C)N1C/C(=C/c2ccsc2)C(=O)/C(=C/c2ccsc2)C1,"inconclusive [inhibitor, single point]",
Cc1cccnc1NC(=O)/C=C/c1ccc2c(c1)OCO2,"inconclusive [inhibitor, single point]",
Cc1cccc(NC(=S)NC(=O)c2ccco2)c1C,active: 11.2 µM,
O=C1NC(Nc2nc3ccccc3s2)(C(F)(F)F)C(=O)N1C1CCCCC1 (centres undefined),"inconclusive [inhibitor, single point]",
O=C(CSc1ncnc2c1nnn2Cc1ccccc1)NC1CCCCC1,"inconclusive [inhibitor, single point]",
COc1cccc(NC(=S)N(CCCN2CCOCC2)Cc2cn(C)c3ccccc23)c1,"inconclusive [activator, single point]",
O=C(NCc1cccnc1)c1ccc(COc2ccccc2Br)cc1,"inconclusive [inhibitor, single point]",
CC(C)(C)c1ccc(-c2conc2N)cc1,"inconclusive [inhibitor, single point]",
O=C(NCCc1cccc(Cl)c1)c1cccs1,"inconclusive [activator, partial curve]",
CC(=O)c1sc(NC(=O)C2(F)C(F)(F)C(F)(F)C(F)(F)C(F)(F)C2(F)F)nc1C,active: 3.55 µM,
CCc1c(C)nc2cc(-c3ccc(Cl)cc3)[nH]n2c1=O,"inconclusive [activator, single point]",
c1ccc(-c2nc3ccccc3nc2N2CCOCC2)cc1,,inactive: 1.51%
Cc1nc2ccccc2nc1SCC(=O)N1CCC(C)CC1,"inconclusive [inhibitor, single point]",
Clc1ccc(/C=C/c2nc3ccccc3[nH]2)cc1,active: 7.08 µM,
Cc1cccc(-c2noc(CN(C(=O)C34CC5CC(CC(C5)C3)C4)C(C)C)n2)c1,"inconclusive [inhibitor, single point]",
O=C(Nc1ccn(Cc2ccccc2)n1)c1n[nH]c([N+](=O)[O-])c1Cl,active: 11.2 µM,
C=CCOc1c(Br)cc(/C=N/Nc2ccc(C(=O)O)cc2)cc1OCC,"inconclusive [inhibitor, partial curve, poor fit]",
C/C(=N\NC(=O)CCCCCNC(=O)c1ccccc1)c1ccccc1O,active: 10 µM,
O=C(CSC1=NCCS1)NC(c1ccccc1)c1ccccc1,"inconclusive [inhibitor, partial curve]",
CCC(=O)Nc1cc(-c2nn(C)c(=O)c3ccccc23)ccc1OC,"inconclusive [inhibitor, single point]",

Compound,Potency,"activity, negative = inhibition"
Cc1ccc(OCCOCCOc2ccc(Br)cc2/C=N\NC(=O)c2ccncc2)cc1,active: 25.1 µM,
Cc1[nH]nc(-c2ccc(O)c(C)c2O)c1Oc1ccccc1,"inconclusive [inhibitor, single point]",
COc1cccc(NC(=O)c2ccc(NC(=O)C3CC(=O)OC34CCCCC4)cc2)c1 (centres undefined),,inactive: -12.7%
O=C(/C=C/c1cccc(O)c1)c1ccc(N2CCOCC2)cc1,"inconclusive [inhibitor, partial curve]",
CCOc1ccc(C(=O)CCN2CCCCCC2)cc1,active: 5.62 µM,
N#C/C(=C(/O)c1cccs1)c1nnc2n1CCCCC2,"inconclusive [inhibitor, single point]",
Cc1ccc(NC(=O)c2cncc(Br)c2)c([N+](=O)[O-])c1,"inconclusive [activator, full curve, poor fit]",
Cc1nc(NS(=O)(=O)c2ccc(Cl)s2)c2c3c(sc2n1)CCCC3,,inactive: -4.09%
COC(=O)c1ccc(NC(=O)CSC2=NC(=O)C(c3ccccc3)C(=O)N2)cc1 (centres undefined),,inactive: -5.13%
O=C(O)C1CC(=O)N(C2CCCCCC2)C1 (centres undefined),"inconclusive [inhibitor, single point]",
CCOc1ccc(Br)cc1S(=O)(=O)Nc1ccccc1N1CCOCC1,"inconclusive [inhibitor, single point]",
CC1C/C(=N/N=C2/NC(=O)CS2)CC(C)(C)C1 (centres undefined),active: 5.01 µM,
Cc1ccccc1CCNC(=O)C1CCC(=O)N(Cc2ccc(Cl)cc2)C1 (centres undefined),,inactive: -3.56%
CCc1ccc(N(CC(=O)Nc2sc3c(c2C(=O)OC)CCCC3)S(C)(=O)=O)cc1,,inactive: -0.11%
CC(OC(=O)CCC(=O)c1cccs1)C(=O)Nc1ccccc1[N+](=O)[O-] (centres undefined),"inconclusive [activator, single point]",
Cc1nnc2ccc(N3CCN(c4cccc(C(F)(F)F)c4)CC3)nn12,,inactive: -12.8%
CSc1cccc(NC(=S)N(CCC(C)C)C(C)c2ccncc2)c1 (centres undefined),"inconclusive [inhibitor, single point]",
O=C(Nc1cccc(Cl)c1)c1ccc(F)c(S(=O)(=O)NCc2cccs2)c1,active: 20 µM,
CCOC(=O)C1(Cc2cccc(Cl)c2)CCCN(C(=O)CCN2CCCC2=O)C1 (centres undefined),,inactive: 25.4%
Cc1ccc2nc(NC(=O)CSCC(=O)OCC(=O)c3ccc(Br)cc3)sc2c1,active: 3.16 µM,
COc1ccc(C(C(=O)NC2CCCC2)N(Cc2ccc(C)cc2)C(=O)c2ccn[nH]2)cc1OC (centres undefined),"inconclusive [inhibitor, single point]",
CCOc1cc(C(N)=O)cc(OCC)c1OCC,,inactive: -8.94%
CCOC(=O)c1ccc(NC(=O)CC2C(=O)OCCN2CC)cc1 (centres undefined),"inconclusive [inhibitor, single point]",
O=C(CC12CC3CC(CC(C3)C1)C2)NC(=S)NCc1ccco1,"inconclusive [inhibitor, partial curve, poor fit]",
